Assay results as given in patent US20250382354A1.

Biological target: SARS-CoV-2 FP peptide (SARS-CoV-2)
Experiment: peptide ELISA

B1: fp.007 (antibody, V domains shown)
VH: EVQLVESGGGLVKPGGSLRLSCAGTGFIFSDAWMTWVRQAPGKGLEWVGRIKSKADGGTTDYAAPVKGRFTISRDDSKNTLYLEINSLKTEDTAVYYCTTGRSRYCIGAVCYYFDHWGQGTLVTVSS
VL: [… about 100 residues …]YCTQTLQTPYTFGQGTKLEIK
  EC50: 0.177 µg/mL
